Experimental data reported in article PMC12069442.

Substrate: O=C1Cc2cc(CCN3CCN(c4nsc5ccccc45)CC3)c(Cl)cc2N1
Assay: not read
Settings: 20 min
[1] = other: CYP3A4.13, ziprasidone 0.1–25 μM
[2] = other: CYP3A4.19, ziprasidone 0.1–25 μM
[3] = other: CYP3A4.23, ziprasidone 0.1–25 μM
[4] = other: CYP3A4.16, ziprasidone 0.1–25 μM
[5] = other: CYP3A4.15, ziprasidone 0.1–25 μM
[6] = other: CYP3A4.14, ziprasidone 0.1–25 μM
[7] = other: CYP3A4.24, ziprasidone 0.1–25 μM
[8] = other: CYP3A4.18, ziprasidone 0.1–25 μM
[9] = other: CYP3A4.28, ziprasidone 0.1–25 μM
[10] = other: CYP3A4.31, ziprasidone 0.1–25 μM

B1: CYP3A4.13 (Homo sapiens; P416L) (protein)
chain: MALIPDLAMETWLLLAVSLVLLYLYGTHSHGLFKKLGIPGPTPLPFLGNILSYHKGFCMFDMECHKKYGKVWGFYDGQQPVLAITDPDMIKTVLVKECYSVFTNRRPFGPVGFMKSAISIAEDEEWKRLRSLLSPTFTSGKLKEMVPIIAQYGDVLVRNLRREAETGKPVTLKDVFGAYSMDVITSTSFGVNIDSLNNPQDPFVENTKKLLRFDFLDPFFLSITVFPFLIPILEVLNICVFPREVTNFLRKSVKRMKESRLEDTQKHRVDFLQLMIDSQNSKETESHKALSDLELVAQSIIFIFAGYETTSSVLSFIMYELATHPDVQQKLQEEIDAVLPNKAPPTYDTVLQMEYLDMVVNETLRLFPIAMRLERVCKKDVEINGMFIPKGVVVMIPSYALHRDPKYWTEPEKFLLERFSKKNKDNIDPYIYTPFGSGPRNCIGMRFALMNMKLALIRVLQNFSFKPCKETQIPLKLSLGGLLQPEKPVVLKVESRDGTVSGA
Km [1]: 0.73 ± 0.15 pmol/µL | kcat [1]: 0.0668 ± 0.00183 s⁻¹

B2: CYP3A4.19 (Homo sapiens; P467S) (protein)
chain: MALIPDLAMETWLLLAVSLVLLYLYGTHSHGLFKKLGIPGPTPLPFLGNILSYHKGFCMFDMECHKKYGKVWGFYDGQQPVLAITDPDMIKTVLVKECYSVFTNRRPFGPVGFMKSAISIAEDEEWKRLRSLLSPTFTSGKLKEMVPIIAQYGDVLVRNLRREAETGKPVTLKDVFGAYSMDVITSTSFGVNIDSLNNPQDPFVENTKKLLRFDFLDPFFLSITVFPFLIPILEVLNICVFPREVTNFLRKSVKRMKESRLEDTQKHRVDFLQLMIDSQNSKETESHKALSDLELVAQSIIFIFAGYETTSSVLSFIMYELATHPDVQQKLQEEIDAVLPNKAPPTYDTVLQMEYLDMVVNETLRLFPIAMRLERVCKKDVEINGMFIPKGVVVMIPSYALHRDPKYWTEPEKFLPERFSKKNKDNIDPYIYTPFGSGPRNCIGMRFALMNMKLALIRVLQNFSFKSCKETQIPLKLSLGGLLQPEKPVVLKVESRDGTVSGA
Km [2]: 3.63 ± 0.85 pmol/µL | kcat [2]: 0.371 ± 0.0672 s⁻¹

B3: CYP3A4.23 (Homo sapiens; R162W) (protein)
chain: MALIPDLAMETWLLLAVSLVLLYLYGTHSHGLFKKLGIPGPTPLPFLGNILSYHKGFCMFDMECHKKYGKVWGFYDGQQPVLAITDPDMIKTVLVKECYSVFTNRRPFGPVGFMKSAISIAEDEEWKRLRSLLSPTFTSGKLKEMVPIIAQYGDVLVRNLRWEAETGKPVTLKDVFGAYSMDVITSTSFGVNIDSLNNPQDPFVENTKKLLRFDFLDPFFLSITVFPFLIPILEVLNICVFPREVTNFLRKSVKRMKESRLEDTQKHRVDFLQLMIDSQNSKETESHKALSDLELVAQSIIFIFAGYETTSSVLSFIMYELATHPDVQQKLQEEIDAVLPNKAPPTYDTVLQMEYLDMVVNETLRLFPIAMRLERVCKKDVEINGMFIPKGVVVMIPSYALHRDPKYWTEPEKFLPERFSKKNKDNIDPYIYTPFGSGPRNCIGMRFALMNMKLALIRVLQNFSFKPCKETQIPLKLSLGGLLQPEKPVVLKVESRDGTVSGA
Km [3]: 2.62 ± 0.82 pmol/µL | kcat [3]: 0.26 ± 0.05 s⁻¹

B4: CYP3A4.16 (Homo sapiens; T185S) (protein)
chain: MALIPDLAMETWLLLAVSLVLLYLYGTHSHGLFKKLGIPGPTPLPFLGNILSYHKGFCMFDMECHKKYGKVWGFYDGQQPVLAITDPDMIKTVLVKECYSVFTNRRPFGPVGFMKSAISIAEDEEWKRLRSLLSPTFTSGKLKEMVPIIAQYGDVLVRNLRREAETGKPVTLKDVFGAYSMDVISSTSFGVNIDSLNNPQDPFVENTKKLLRFDFLDPFFLSITVFPFLIPILEVLNICVFPREVTNFLRKSVKRMKESRLEDTQKHRVDFLQLMIDSQNSKETESHKALSDLELVAQSIIFIFAGYETTSSVLSFIMYELATHPDVQQKLQEEIDAVLPNKAPPTYDTVLQMEYLDMVVNETLRLFPIAMRLERVCKKDVEINGMFIPKGVVVMIPSYALHRDPKYWTEPEKFLPERFSKKNKDNIDPYIYTPFGSGPRNCIGMRFALMNMKLALIRVLQNFSFKPCKETQIPLKLSLGGLLQPEKPVVLKVESRDGTVSGA
Km [4]: 7.07 ± 4.52 pmol/µL | kcat [4]: 0.738 ± 0.33 s⁻¹

B5: CYP3A4.15 (Homo sapiens; R162Q) (protein)
chain: MALIPDLAMETWLLLAVSLVLLYLYGTHSHGLFKKLGIPGPTPLPFLGNILSYHKGFCMFDMECHKKYGKVWGFYDGQQPVLAITDPDMIKTVLVKECYSVFTNRRPFGPVGFMKSAISIAEDEEWKRLRSLLSPTFTSGKLKEMVPIIAQYGDVLVRNLRQEAETGKPVTLKDVFGAYSMDVITSTSFGVNIDSLNNPQDPFVENTKKLLRFDFLDPFFLSITVFPFLIPILEVLNICVFPREVTNFLRKSVKRMKESRLEDTQKHRVDFLQLMIDSQNSKETESHKALSDLELVAQSIIFIFAGYETTSSVLSFIMYELATHPDVQQKLQEEIDAVLPNKAPPTYDTVLQMEYLDMVVNETLRLFPIAMRLERVCKKDVEINGMFIPKGVVVMIPSYALHRDPKYWTEPEKFLPERFSKKNKDNIDPYIYTPFGSGPRNCIGMRFALMNMKLALIRVLQNFSFKPCKETQIPLKLSLGGLLQPEKPVVLKVESRDGTVSGA
Km [5]: 3.26 ± 1.31 pmol/µL | kcat [5]: 0.497 ± 0.127 s⁻¹

B6: CYP3A4.14 (Homo sapiens; L15P) (protein)
chain: MALIPDLAMETWLLPAVSLVLLYLYGTHSHGLFKKLGIPGPTPLPFLGNILSYHKGFCMFDMECHKKYGKVWGFYDGQQPVLAITDPDMIKTVLVKECYSVFTNRRPFGPVGFMKSAISIAEDEEWKRLRSLLSPTFTSGKLKEMVPIIAQYGDVLVRNLRREAETGKPVTLKDVFGAYSMDVITSTSFGVNIDSLNNPQDPFVENTKKLLRFDFLDPFFLSITVFPFLIPILEVLNICVFPREVTNFLRKSVKRMKESRLEDTQKHRVDFLQLMIDSQNSKETESHKALSDLELVAQSIIFIFAGYETTSSVLSFIMYELATHPDVQQKLQEEIDAVLPNKAPPTYDTVLQMEYLDMVVNETLRLFPIAMRLERVCKKDVEINGMFIPKGVVVMIPSYALHRDPKYWTEPEKFLPERFSKKNKDNIDPYIYTPFGSGPRNCIGMRFALMNMKLALIRVLQNFSFKPCKETQIPLKLSLGGLLQPEKPVVLKVESRDGTVSGA
Km [6]: 1.93 ± 0.31 pmol/µL | kcat [6]: 0.212 ± 0.0212 s⁻¹

B7: CYP3A4.24 (Homo sapiens; Q200H) (protein)
chain: MALIPDLAMETWLLLAVSLVLLYLYGTHSHGLFKKLGIPGPTPLPFLGNILSYHKGFCMFDMECHKKYGKVWGFYDGQQPVLAITDPDMIKTVLVKECYSVFTNRRPFGPVGFMKSAISIAEDEEWKRLRSLLSPTFTSGKLKEMVPIIAQYGDVLVRNLRREAETGKPVTLKDVFGAYSMDVITSTSFGVNIDSLNNPHDPFVENTKKLLRFDFLDPFFLSITVFPFLIPILEVLNICVFPREVTNFLRKSVKRMKESRLEDTQKHRVDFLQLMIDSQNSKETESHKALSDLELVAQSIIFIFAGYETTSSVLSFIMYELATHPDVQQKLQEEIDAVLPNKAPPTYDTVLQMEYLDMVVNETLRLFPIAMRLERVCKKDVEINGMFIPKGVVVMIPSYALHRDPKYWTEPEKFLPERFSKKNKDNIDPYIYTPFGSGPRNCIGMRFALMNMKLALIRVLQNFSFKPCKETQIPLKLSLGGLLQPEKPVVLKVESRDGTVSGA
Km [7]: 2.56 ± 0.63 pmol/µL | kcat [7]: 0.144 ± 0.02 s⁻¹

B8: CYP3A4.18 (Homo sapiens; L293P) (protein)
chain: MALIPDLAMETWLLLAVSLVLLYLYGTHSHGLFKKLGIPGPTPLPFLGNILSYHKGFCMFDMECHKKYGKVWGFYDGQQPVLAITDPDMIKTVLVKECYSVFTNRRPFGPVGFMKSAISIAEDEEWKRLRSLLSPTFTSGKLKEMVPIIAQYGDVLVRNLRREAETGKPVTLKDVFGAYSMDVITSTSFGVNIDSLNNPQDPFVENTKKLLRFDFLDPFFLSITVFPFLIPILEVLNICVFPREVTNFLRKSVKRMKESRLEDTQKHRVDFLQLMIDSQNSKETESHKALSDPELVAQSIIFIFAGYETTSSVLSFIMYELATHPDVQQKLQEEIDAVLPNKAPPTYDTVLQMEYLDMVVNETLRLFPIAMRLERVCKKDVEINGMFIPKGVVVMIPSYALHRDPKYWTEPEKFLPERFSKKNKDNIDPYIYTPFGSGPRNCIGMRFALMNMKLALIRVLQNFSFKPCKETQIPLKLSLGGLLQPEKPVVLKVESRDGTVSGA
Km [8]: 1.78 ± 0.81 pmol/µL | kcat [8]: 0.184 ± 0.047 s⁻¹

B9: CYP3A4.28 (Homo sapiens; L22V) (protein)
chain: MALIPDLAMETWLLLAVSLVLVYLYGTHSHGLFKKLGIPGPTPLPFLGNILSYHKGFCMFDMECHKKYGKVWGFYDGQQPVLAITDPDMIKTVLVKECYSVFTNRRPFGPVGFMKSAISIAEDEEWKRLRSLLSPTFTSGKLKEMVPIIAQYGDVLVRNLRREAETGKPVTLKDVFGAYSMDVITSTSFGVNIDSLNNPQDPFVENTKKLLRFDFLDPFFLSITVFPFLIPILEVLNICVFPREVTNFLRKSVKRMKESRLEDTQKHRVDFLQLMIDSQNSKETESHKALSDLELVAQSIIFIFAGYETTSSVLSFIMYELATHPDVQQKLQEEIDAVLPNKAPPTYDTVLQMEYLDMVVNETLRLFPIAMRLERVCKKDVEINGMFIPKGVVVMIPSYALHRDPKYWTEPEKFLPERFSKKNKDNIDPYIYTPFGSGPRNCIGMRFALMNMKLALIRVLQNFSFKPCKETQIPLKLSLGGLLQPEKPVVLKVESRDGTVSGA
Km [9]: 4.36 ± 2.63 pmol/µL | kcat [9]: 0.385 ± 0.171 s⁻¹

B10: CYP3A4.31 (Homo sapiens; H324Q) (protein)
chain: MALIPDLAMETWLLLAVSLVLLYLYGTHSHGLFKKLGIPGPTPLPFLGNILSYHKGFCMFDMECHKKYGKVWGFYDGQQPVLAITDPDMIKTVLVKECYSVFTNRRPFGPVGFMKSAISIAEDEEWKRLRSLLSPTFTSGKLKEMVPIIAQYGDVLVRNLRREAETGKPVTLKDVFGAYSMDVITSTSFGVNIDSLNNPQDPFVENTKKLLRFDFLDPFFLSITVFPFLIPILEVLNICVFPREVTNFLRKSVKRMKESRLEDTQKHRVDFLQLMIDSQNSKETESHKALSDLELVAQSIIFIFAGYETTSSVLSFIMYELATQPDVQQKLQEEIDAVLPNKAPPTYDTVLQMEYLDMVVNETLRLFPIAMRLERVCKKDVEINGMFIPKGVVVMIPSYALHRDPKYWTEPEKFLPERFSKKNKDNIDPYIYTPFGSGPRNCIGMRFALMNMKLALIRVLQNFSFKPCKETQIPLKLSLGGLLQPEKPVVLKVESRDGTVSGA
Km [10]: 4.80 ± 0.99 pmol/µL | kcat [10]: 0.319 ± 0.0488 s⁻¹
